# Test results: the supplement of paper PMC8728848
# The list shows a part of the results.
# What was measured:
# Assay in all cases: glycan array binding signal (z-score within array); higher = stronger binding
# Conditions in all cases: glycan notation: IUPAC condensed, linker removed
# [1] = target: Gal(b1-3)GlcNAc(b1-3)Gal(b1-4)GlcNAc(b1-2)[Gal(b1-3)GlcNAc(b1-3)Gal(b1-4)GlcNAc(b1-6)]Man(a1-6)[Gal(b1-3)GlcNAc(b1-3)Gal(b1-4)GlcNAc(b1-2)Man(a1-3)]Man(b1-4)GlcNAc(b1-4)[Fuc(a1-6)]GlcNAc
# Summary of the method: (§1)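 Negative Z-scores can be read as non-binding. The Z-score is calculated within each array and then averaged across arrays of one protein sequence at different concentrations or buffers and across linkers. Arrays, 3228 in all, were curated from the Consortium for Functional Glycomics database and kept only where the protein sequence was available.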
# [2] = target: Gal(b1-3)GlcNAc(b1-3)Gal(b1-4)GlcNAc(b1-3)Gal(b1-4)GlcNAc(b1-2)[Gal(b1-3)GlcNAc(b1-3)Gal(b1-4)GlcNAc(b1-3)Gal(b1-4)GlcNAc(b1-6)]Man(a1-6)[Gal(b1-3)GlcNAc(b1-3)Gal(b1-4)GlcNAc(b1-3)Gal(b1-4)GlcNAc(b1-2)Man(a1-3)]Man(b1-4)GlcNAc(b1-4)[Fuc(a1-6)]GlcNAc
# Summary of the method: as §1
# [3] = target: Gal(b1-3)GlcNAc(b1-3)Gal(b1-4)GlcNAc(b1-6)[Gal(b1-3)GlcNAc(b1-3)]Gal(b1-4)Glc
# Summary of the method: as §1
# [4] = target: Gal(b1-3)GlcNAc(b1-3)Gal(b1-4)[Fuc(a1-3)]GlcNAc
# Summary of the method: as §1
# [5] = target: Gal(b1-3)GlcNAc(b1-3)Gal(b1-4)[Fuc(a1-3)]GlcNAc(b1-6)[Gal(b1-3)GlcNAc(b1-3)]Gal(b1-4)Glc
# Summary of the method: as §1
# [6] = target: Gal(b1-3)GlcNAc(b1-3)GalNAc
# Summary of the method: as §1
# [7] = target: Gal(b1-3)GlcNAc(b1-6)Gal(b1-4)GlcNAc
# Summary of the method: as §1
# [8] = target: Gal(b1-3)GlcNAc(b1-6)GalNAc
# Summary of the method: as §1
# [9] = target: Gal(b1-3)GlcNAc(b1-6)[Gal(b1-3)]GalNAc
# Summary of the method: as §1
# Gal(b1-3)GlcNAc6S = target: Gal(b1-3)GlcNAc6S
# Summary of the method: as §1
# [10] = target: Gal(b1-3)[Fuc(a1-4)]GlcNAc
# Summary of the method: as §1
# [11] = target: Gal(b1-3)[Fuc(a1-4)]GlcNAc(b1-2)Man
# Summary of the method: as §1
# [12] = target: Gal(b1-3)[Fuc(a1-4)]GlcNAc(b1-2)Man(a1-3)[Gal(b1-3)[Fuc(a1-4)]GlcNAc(b1-2)Man(a1-6)]Man(b1-4)GlcNAc(b1-4)GlcNAc
# Summary of the method: as §1
# [13] = target: Gal(b1-3)[Fuc(a1-4)]GlcNAc(b1-2)Man(a1-3)[Gal(b1-3)[Fuc(a1-4)]GlcNAc(b1-2)Man(a1-6)]Man(b1-4)GlcNAc(b1-4)[Fuc(a1-6)]GlcNAc
# Summary of the method: as §1
# [14] = target: Gal(b1-3)[Fuc(a1-4)]GlcNAc(b1-3)Gal(b1-3)[Fuc(a1-4)]GlcNAc
# Summary of the method: as §1
# [15] = target: Gal(b1-3)[Fuc(a1-4)]GlcNAc(b1-3)Gal(b1-4)GlcNAc
# Summary of the method: as §1
# [16] = target: Gal(b1-3)[Fuc(a1-4)]GlcNAc(b1-3)Gal(b1-4)[Fuc(a1-3)]GlcNAc
# Summary of the method: as §1
# [17] = target: Gal(b1-3)[Fuc(a1-4)]GlcNAc(b1-6)GalNAc
# Summary of the method: as §1
# [18] = target: Gal(b1-3)[GlcNAc(b1-6)]GalNAc
# Summary of the method: as §1
# [19] = target: Gal(b1-3)[GlcNAc(b1-6)]GlcNAc
# Summary of the method: as §1
# [20] = target: Gal(b1-3)[Neu5Ac(a2-6)]GalNAc
# Summary of the method: as §1
# [21] = target: Gal(b1-3)[Neu5Ac(a2-6)]GlcNAc
# Summary of the method: as §1
# [22] = target: Gal(b1-3)[Neu5Ac(a2-6)]GlcNAc(a1-4)Gal(b1-4)Glc
# Summary of the method: as §1
# [23] = target: Gal(b1-3)[Neu5Ac(a2-6)]GlcNAc(b1-4)Gal(b1-4)Glc
# Summary of the method: as §1
# [24] = target: Gal(b1-3)[Neu5Ac(a2-6)]GlcNAc(b1-6)Gal(b1-4)Glc
# Summary of the method: as §1
# [25] = target: Gal(b1-3)[Neu5Ac(b2-6)]GalNAc
# Summary of the method: as §1
# [26] = target: Gal(b1-3)[Neu5Ac(b2-6)]GlcNAc
# Summary of the method: as §1
# Gal(b1-4)Gal = target: Gal(b1-4)Gal
# Summary of the method: as §1
# [27] = target: Gal(b1-4)GalNAc(a1-3)[Fuc(a1-2)]Gal(b1-4)GlcNAc
# Summary of the method: as §1
# [28] = target: Gal(b1-4)GalNAc(b1-3)[Fuc(a1-2)]Gal(b1-4)GlcNAc
# Summary of the method: as §1
binder,measurement,setting,value
"Epa1-NP (Candida glabrata), Q6VBJ0 (protein) MILNPALFLNKCVCIYTTLILLLLTNGGYATSSNDISLASKDPTTFPLGCSPDITTPKKGLSMELYSYDFRKKGSYPCWDAAYLDPNYPRTGYKSHRLLAKVDGVTGNINFYYHATKGCTPQLGHLPASYNYPKPLTMTNFTMLLYGYFRPKVTGFHTFTISADDLLFVNFGAGNAFDCCRRDSSADHFGNYQAYAIWGSKTAKDELTVHLDAGVYYPIRLFYNNREYDGALSFTFKTESNENTVSDFSEYFFSLDDTEEGCPGLISYDSSCASVKTSKIIGIDYHTETPNENLVPITKTIYHLGIPCTGTTTTPLCGSGFYDPLANKCVTINTSSTSSVTKTTSHTTSKEVSFHSSISSQKTLIPKSIPSPYGPIKSQSIPTEMETSSEISSSEYAFSDVISTPSHSPYTKKHSSLNSSSYTSTVIHSLTSYSISQGIFSTSLSEQNITSKSSTDKFSTATSMSNNITQSSIIISQFSTNNENYTTTSMHTSSDKISTETLNNSISTTTSILFSNSSTILKNNTTIISSDKDTHYHPVNPTIVCSTNKTEIICASITQPSISNSNNHWSSSVLKFNSTTVRSTLPSSAGSNETSINVPFSSSTESNTSTSSTSTSNSKMVRSTLPSSAGSNETSISVPFSSSTESNTSTSSTSTSNSKMVRSTLPSSAGSNETSINVPFSSSTESNTSTSSTSTSNSKTVRSTPFSSAGIIMTSLSQRNNKSASSYASSNSKCYNTADSCRKVHSTPSYLLTSSYTSEGVDYDCSLVSTKLKINDTNCVNNKHTTKSCLKTSVTTTIPTLEIKTARKSSSNTIGLHSYPTSSPNKSISSAPIIGYISSFKTIKTASPSYQTSDLTTITTITSLNNPGSTAVENTHESNDKSRKTSSNDISSKHSVIKETKDAVESSNKSHQTNTLKCSSIIIASSSHNSYESLGGTTLTLTLSKVYSPQNNDTLPFLEISEVNPSRTVLPESSKMMQYLTSTEERNKTARNTIATNIVSISTFHFEGEGNAIRMGYTQLLLMLIGIIVMNIGT",glycan array binding signal (z-score),[1],0.228
same,glycan array binding signal (z-score),[2],0.38
same,glycan array binding signal (z-score),[3],0.647
same,glycan array binding signal (z-score),[4],-0.25
same,glycan array binding signal (z-score),[5],0.199
same,glycan array binding signal (z-score),[6],-0.236
same,glycan array binding signal (z-score),[7],1.06
same,glycan array binding signal (z-score),[8],-0.273
same,glycan array binding signal (z-score),[9],1.62
same,glycan array binding signal (z-score),Gal(b1-3)GlcNAc6S,0.331
same,glycan array binding signal (z-score),[10],-0.272
same,glycan array binding signal (z-score),[11],-0.278
same,glycan array binding signal (z-score),[12],-0.294
same,glycan array binding signal (z-score),[13],-0.172
same,glycan array binding signal (z-score),[14],-0.284
same,glycan array binding signal (z-score),[15],0.25
same,glycan array binding signal (z-score),[16],-0.32
same,glycan array binding signal (z-score),[17],-0.274
same,glycan array binding signal (z-score),[18],2.05
same,glycan array binding signal (z-score),[19],1.72
same,glycan array binding signal (z-score),[20],5.06
same,glycan array binding signal (z-score),[21],2.02
same,glycan array binding signal (z-score),[22],1.84
same,glycan array binding signal (z-score),[23],-0.264
same,glycan array binding signal (z-score),[24],-0.25
same,glycan array binding signal (z-score),[25],0.372
same,glycan array binding signal (z-score),[26],0.26
same,glycan array binding signal (z-score),Gal(b1-4)Gal,-0.205
same,glycan array binding signal (z-score),[27],0.145
same,glycan array binding signal (z-score),[28],0.59
